The assay deals with T1, amylin receptors (rat nucleus accumbens membranes) (rat).
T1 sequence 1: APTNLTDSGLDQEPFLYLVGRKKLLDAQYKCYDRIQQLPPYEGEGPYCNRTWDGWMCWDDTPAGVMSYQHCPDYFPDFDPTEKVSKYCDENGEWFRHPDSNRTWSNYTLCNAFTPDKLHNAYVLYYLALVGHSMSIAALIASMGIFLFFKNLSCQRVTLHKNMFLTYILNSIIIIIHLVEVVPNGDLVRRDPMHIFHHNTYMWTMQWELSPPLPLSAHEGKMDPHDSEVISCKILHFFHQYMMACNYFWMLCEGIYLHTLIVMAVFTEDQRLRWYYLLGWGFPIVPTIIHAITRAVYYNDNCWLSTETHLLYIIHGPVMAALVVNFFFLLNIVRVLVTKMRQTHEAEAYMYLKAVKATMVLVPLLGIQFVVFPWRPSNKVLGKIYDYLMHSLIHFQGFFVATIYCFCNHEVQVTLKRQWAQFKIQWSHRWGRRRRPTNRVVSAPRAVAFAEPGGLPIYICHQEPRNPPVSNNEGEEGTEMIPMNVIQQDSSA
T1 sequence 2: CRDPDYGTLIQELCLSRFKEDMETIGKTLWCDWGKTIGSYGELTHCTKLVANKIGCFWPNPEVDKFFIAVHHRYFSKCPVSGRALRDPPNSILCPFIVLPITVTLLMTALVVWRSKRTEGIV
As to the kind of experiment: amylin RBA.

pIC50: −log10 of the molar value.

Take “[Ser117, dLeu119]leptin(116-122)-Amylin(1-7)-[^11,18Arg]sCT(8-27)-Amylin(33-37) (sequence not shown) (peptide; modification not given)”: the pIC50 is 10.40.

A word on the pIC50: it is the negative decadic logarithm of the IC50, by convention in mol/L.
